Results published in PubChem BioAssay AID1240 (Sanford-Burnham Center for Chemical Genomics, 2008).
In all, about 50,000 compounds went through this assay and about 800 (1.6%) showed an effect of 50% or more. The list shows a part of the results.

The molecules below were run against Bcl-2-like protein 10 (Homo sapiens) (UniProt Q9HD36) (assay: Phenotype converters, Bcl-B/TR3 peptide binding displacement, primary biochemical FP (AID 1240;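 note: 0% = Bcl-B with tracer peptide and DMSO and 100% = tracer peptide lacking Bcl-B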)). Details: GST-Bcl-B / FITC-TR3 peptide fluorescence polarization; stronger effect = higher value; compound at 3.75 mg/L.
Sequence of UniProt Q9HD36 (Q9HD36 whole entry, looked up): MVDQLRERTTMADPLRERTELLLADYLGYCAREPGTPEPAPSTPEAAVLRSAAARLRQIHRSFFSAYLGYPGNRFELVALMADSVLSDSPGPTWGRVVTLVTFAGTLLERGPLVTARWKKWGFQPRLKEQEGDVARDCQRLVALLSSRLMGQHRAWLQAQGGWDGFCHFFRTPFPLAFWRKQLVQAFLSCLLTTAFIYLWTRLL
`O=C1CC(Sc2ccc(Br)cc2)C(=O)N1c1ccccc1` (centres undefined) showed a displacement of -3.5%.
Work on `CC(=O)c1ccc(NC(=O)CN(c2ccccc2)S(=O)(=O)c2ccccc2[N+](=O)[O-])cc1` yielded a displacement of 11.6%.
In the case of `CCc1ccc(-n2nc(C)c3c(C)cc(=O)oc32)cc1`, the displacement is reported as 6.9%.
`CCCc1c(C)c2ccccc2[nH]c1=O` was tested, and the displacement was 11.2%.
`CCOC(=O)c1c(C)oc2ccc(OCc3ccccc3F)cc12` showed a displacement of 12.9%.
`COc1ccc(NC(=O)CSc2nc(-c3ccccc3)c(-c3ccccc3)o2)cc1` was tested, and the displacement was 10.7%.
In the case of `CCOC(=O)C1=C(C)N=c2s/c(=C\c3ccc(C(C)=O)c(OC)c3)c(=O)n2C1c1ccccc1` (centres undefined), the displacement is reported as 4.5%.
`Cc1ccc(C(=O)N/C(=C/c2cccnc2)C(=O)NN)cc1` gave a displacement of -8.7%.
`CCC1=NN2C(=N)/C(=C/c3ccc(-c4ccc([N+](=O)[O-])cc4C)o3)C(=O)N=C2S1` was tested, and the displacement was 14%.
`O=C(OC/C=C/c1ccccc1)C(C(F)(F)F)C(F)(F)F` gave a displacement of 3.9%.
`CCOC(=O)C1=C(N)OC2=C(C(=O)CC(C)(C)C2)C1c1ccc(Cl)cc1Cl` (centres undefined) showed a displacement of 5.6%.
`O=C1SC(Nc2ccc(Br)cc2)C(=O)N1c1ccccc1` (centres undefined) showed a displacement of -1.7%.
`N#Cc1c(-c2ccco2)c2c([nH]c1=S)CCCC2` gave a displacement of -5%.
`OC(COc1cccc(OCC(O)CN2CCOCC2)c1)CN1CCOCC1` (centres undefined) showed a displacement of -2.2%.
For `O=C(Nc1ccc(Cl)c(Cl)c1)C1CC(=O)N(c2cccc([N+](=O)[O-])c2)C1` (centres undefined), the displacement was 6.6%.
In the case of `O=C(O)CCCN1C(=O)C(=O)/C(=C(\O)c2ccc(Cl)cc2)C1c1ccccc1` (centres undefined), the displacement is reported as 0.5%.
`COc1ccc(/C(C)=N\N=C2/NC(=O)C(Cc3ccc(C)cc3)S2)cc1` (centres undefined) showed a displacement of 7.5%.
`COc1cc(CN2CCN(C(=O)c3ccccc3F)CC2)cc(OC)c1O` showed a displacement of -9.6%.
`O=C1N=c2ccc(Br)cc2=C1c1sc(=O)n(-c2ccc(O)cc2)c1O` gave a displacement of 4.6%.
With `CS(=O)(=O)N1CCN(c2ccc([N+](=O)[O-])c3cccnc23)CC1` the displacement was -2.6%.
`COC(=O)NNC(=O)c1ccc(OC)c(OC)c1` was tested, and the displacement was -6.7%.
In the case of `Cc1ccc(CSc2nc(N)c3c4c(sc3n2)CCC4)c(C)c1`, the displacement is reported as -6.8%.
With `Cc1ccc(C(=O)N/C(=C\c2cccc(Br)c2)C(=O)N2CCCCC2)cc1` the displacement was 14.4%.
For `O=C(Cc1ccccc1)Nc1ccc(Br)cc1C(=O)O`, the displacement was 0%.
`CN1CCN(C(=O)c2ccc(-c3ccccc3)cc2)CC1` gave a displacement of -6.3%.
Molecule `O=C(O)c1c[nH]c2c(ccc3ccccc32)c1=O` has a displacement of -0.7%.
For `O=C(CCNc1ccc2c(c1)oc1ccccc12)c1ccc(Br)cc1`, the displacement was -11.5%.
Molecule `O=C(Nc1ccc(Br)cn1)c1cccc(Cl)c1Cl` has a displacement of -8.4%.
In the case of `CCOc1cc(OCC)cc(C(=O)Nc2ccc3oc(-c4ccc(OC)cc4)nc3c2)c1`, the displacement is reported as 4.2%.
With `CCN(CC)c1ccc(N/C(N)=N/c2nc(C(F)(F)F)cc(=O)[nH]2)cc1` the displacement was 8.3%.
`COc1ccc(C(=O)N2CCN(Cc3cc(OC)c(OC)cc3OC)CC2)cc1` was tested, and the displacement was 4%.
For `O=C1CN(S(=O)(=O)c2ccc3ccccc3c2)CC(=O)N1`, the displacement was -1.2%.
For `COc1ccc(S(=O)(=O)N2CCN(Cc3ccccc3C)CC2)cc1`, the displacement was -9.8%.
`O=C(CC1S/C(=N\N=C\c2cccc(O)c2)NC1=O)Nc1ccc(Cl)c(Cl)c1` (centres undefined) showed a displacement of 13.2%.
`CC(Oc1cccc(Cl)c1)C(=O)NCc1ccncc1` (centres undefined) showed a displacement of -7.2%.
With `CC1=C(C(=O)OC2CCCC2)C(c2ccc(Br)cc2)NC(=O)N1` (centres undefined) the displacement was 7%.
`COc1ccc(C2CC(c3cccs3)=NN2c2ccc(C=O)cc2)cc1` (centres undefined) showed a displacement of 17.4%.
For `C/C(=N\NS(=O)(=O)c1ccc([N+](=O)[O-])cc1)c1ccc(NC(=O)c2ccco2)cc1`, the displacement was 0%.
For `CCc1cc(C)cc(OCCn2cc(/C=C3/SC(=S)N(C)C3=O)c3ccccc32)c1`, the displacement was 123%.
`COc1ccc(/C=C2/SC(=Nc3ccc(O)cc3)NC2=O)cc1` was tested, and the displacement was -15.9%.
Work on `CC(C)c1ccc(N2C(=O)NC(=O)/C(=C/c3cccc([N+](=O)[O-])c3)C2=O)cc1` yielded a displacement of 13.3%.
`Clc1ccccc1CN1CCN(Cc2ccncc2)CC1` gave a displacement of -26.7%.
For `CC1=C(C(=O)OC2CCCCC2)C(c2ccc(Br)cc2)NC(=O)N1` (centres undefined), the displacement was 17.5%.
`COc1cc(NC(=O)COc2ccc(Cl)cc2Br)cc(OC)c1` gave a displacement of -12.1%.
In the case of `CCOc1ccccc1NC(=O)c1c(NC(=O)Cc2ccc(OC)cc2)sc2c1CCCC2`, the displacement is reported as 1.8%.
`Oc1ccc(Nc2nc3nonc3nc2Nc2ccccc2)cc1` was tested, and the displacement was -9.7%.
`COc1ccc(C=C2C(=O)c3ccccc3C2=O)c(OC)c1` gave a displacement of 181%.
`O=C1C(=O)N(c2ccc(Cl)cc2)C(=O)N1Cc1ccccc1` was tested, and the displacement was 16.9%.
`COC(=O)CN(c1ccccc1)S(=O)(=O)c1ccccc1[N+](=O)[O-]` was tested, and the displacement was 9.9%.
Molecule `O=C(N/N=C/c1cccc(Cl)c1Cl)c1ccc(Cl)c(Cl)c1` has a displacement of 5.8%.
Work on `COc1ccccc1N(CC(O)CN1CCCCC1)S(=O)(=O)c1ccccc1` (centres undefined) yielded a displacement of -1.1%.
For `CCOC(=O)c1sc(NC(=O)c2ccc(C)c([N+](=O)[O-])c2)c(C(=O)OCC)c1C`, the displacement was 13.5%.
Work on `CCOC(=O)CC(C(=O)OCC)P(=O)(c1ccccc1)c1ccccc1` (centres undefined) yielded a displacement of 2.7%.
In the case of `CC(=O)Nc1ccc(N=Cc2ccc([N+](=O)[O-])s2)cc1`, the displacement is reported as -2.9%.
`COc1ccccc1C(=O)N1CCN(C(=O)c2cccs2)CC1` was tested, and the displacement was -8.4%.
For `CCOC(=O)c1c(C)n(-c2ccccc2)c2ccc(O)c(CN(C)C)c12`, the displacement was 17.3%.
Molecule `COC(=O)C(NC(=O)c1cccc(Cl)c1)C12CC3CC(CC(C3)C1)C2` (centres undefined) has a displacement of -0.3%.
Work on `CC(C)OC(=O)C1C(=O)CC(C)(O)C(C(=O)OC(C)C)C1c1ccc(Cl)cc1` (centres undefined) yielded a displacement of 4.9%.
For `COc1cccc(C(=O)/C=C/c2ccc3c(c2)OCO3)c1`, the displacement was -5.8%.
`COc1ccc(C2(CNC(=O)C3(c4ccccc4)CCCC3)CCCC2)cc1OC` showed a displacement of -15.1%.
Work on `CCCc1nc2c(nnn2Cc2ccccc2)c(=O)[nH]1` yielded a displacement of 10.1%.
Molecule `O=C(Nc1ccc(NS(=O)(=O)c2ccccc2)cc1)c1ccco1` has a displacement of 0.4%.
`O=C(NCCO)c1ccc(Oc2ccc(C(=O)NCCO)cc2)cc1` showed a displacement of 1.9%.
`Cc1ccc(-c2cc(CC(C)C)nc(N)c2C#N)cc1` gave a displacement of -6.3%.
In the case of `CCOC(=O)C1=C(N)Oc2cc(O)ccc2C1c1ccc(Cl)cc1` (centres undefined), the displacement is reported as -54.9%.
`Cc1ccc(NC2CC(=O)N(c3ccccc3)C2=O)cc1` (centres undefined) showed a displacement of 9.6%.
In the case of `CC(=O)N1CCN=C1Nc1c(Cl)cccc1Cl`, the displacement is reported as 8.3%.
Molecule `CN1CCN(NC(=S)Nc2ccc(F)cc2)CC1` has a displacement of -1%.
Molecule `CCSc1nc2ccccc2n1C(=O)/C=C/c1ccc(OC)c(OC)c1` has a displacement of 11.3%.
